Data taken from the supplement of paper PMC3334620.
The full ranking holds about 33,000 sequences; the median of “E-score (-0.5 to 0.5)” is about -0.013, and the highest 2% start at about 0.3. The list shows a part of the results.

Molecular target: T1, Msn1 (UniProt P22148)
T1 sequence: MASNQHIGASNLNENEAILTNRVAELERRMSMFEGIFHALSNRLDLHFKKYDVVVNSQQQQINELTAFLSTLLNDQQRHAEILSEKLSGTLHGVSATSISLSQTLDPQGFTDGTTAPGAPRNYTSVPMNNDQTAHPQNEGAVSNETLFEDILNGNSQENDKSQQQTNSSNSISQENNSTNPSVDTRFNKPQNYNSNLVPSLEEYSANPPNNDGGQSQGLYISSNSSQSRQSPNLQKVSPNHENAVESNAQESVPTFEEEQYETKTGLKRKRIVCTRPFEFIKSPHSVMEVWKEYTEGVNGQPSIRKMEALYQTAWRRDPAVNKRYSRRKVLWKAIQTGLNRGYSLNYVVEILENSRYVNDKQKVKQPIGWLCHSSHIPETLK
Test: PBM E-score (8-mer binding enrichment) (E-score (-0.5 to 0.5)); higher = stronger / more preferred TF binding; most listed sequences are background and not binding sites
Settings: protein concentration: 200 nM; construct: GST-full length
Method in brief: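 E-scores (a modified Wilcoxon-Mann-Whitney statistic) were assigned by the Universal PBM Analysis Suite to every ungapped eight-base word pooled with its reverse complement. The input came from universal all-10-mer Agilent arrays made double-stranded by primer extension and probed with GST-tagged yeast transcription factors at about 100-200 nM. Fluorescent anti-GST detected bound protein, and masliner normalised the scans.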

Point of comparison: GAAAGCTA, “PBM E-score” value -0.154. Against it:
- CAATATTG — higher, 0.233
- AGATTCAA — higher, 0.213
- CGGGGCCC — higher, -0.143
- AATTGTCA — higher, 0.359
- CCCATACG — higher, -0.118
- ACAGTTGG — higher, -0.0246
- AAGCATAG — lower, -0.225
- GCCTAGTA — higher, -0.087
- AGAGTTAC — lower, -0.262
- CATTATAA — higher, 0.11
- GATGGAAC — higher, -0.125
- AATGTTTG — higher, -0.0182
- AATGCTCT — higher, -0.0449
- CCCTCCTA — lower, -0.156
- GCAAATAC — higher, 0.0266
- ATTATCGA — higher, -0.0427
- GGGGTCGA — lower, -0.313
- CATCATAC — higher, 0.0861
- GACTGAGC — higher, -0.118
- ATATCGAG — higher, -0.00432
- ACGAAGCA — higher, -0.0132
- CAGCGGGG — lower, -0.241
- AAAGACGT — higher, 0.168
- CATGGTAG — higher, -0.055
- GATACAAA — higher, 0.313
- AAAACGGA — higher, 0.142
- CATTGTAC — higher, 0.0768
- CGTATCAC — higher, -0.0963
- ACAGCAAC — higher, 0.181
- GTTTCCTA — higher, 0.0551
- ATCCTAAG — higher, -0.124
- ACTTCAGC — lower, -0.194
- GATAGGAA — higher, -0.147
- GGATTACC — lower, -0.223
- TGTGACAA — higher, 0.377
- TTCCAGAA — higher, 0.168
- CTTACCCA — higher, -0.0177
- AGGATCAG — higher, -0.12
- GAGATACA — higher, 0.266
- CTGCAATA — higher, 0.101
- AGAACGCT — lower, -0.229
- AAGAAATT — higher, 0.216
- GACCTACA — higher, 0.0573
- GACACGGA — higher, 0.369
- CCAATACG — higher, -0.027
- AAGCGTGG — higher, 0.148
- ATTAGGGG — higher, -0.0891
- CGCCCCCA — lower, -0.369
- GCCGGGGA — lower, -0.298
- GGAGCCAA — higher, -0.0633
- AACGCGGA — higher, 0.156
- GCTACTAA — higher, -0.0856
- ATAGCATA — higher, -0.0589
- ACCCGAAC — higher, 0.0275
- AGGGGTTG — lower, -0.2
- ATGGTACA — higher, 0.209
- GAAGAAGC — higher, -0.116
- TGCGACAA — higher, 0.338
- CCGCCAGG — higher, -0.117
- CAGTGAGC — higher, -0.0953
- TCCTCCCA — higher, 0.0597
- AGGAAGGG — lower, -0.259
- ACTGTAGC — higher, -0.117
- AAAAAAAA — higher, 0.108
- CTCTAGCA — higher, -0.102
- AATCTTGG — higher, 0.0184
- CGGCCGTA — higher, -0.064
- AGGTACAC — higher, 0.139
- TAGACCCA — lower, -0.164
- CACCCACA — higher, -0.132
- CCACGGGA — lower, -0.157
- GATTATCC — higher, 0.0161
- CCGGAATC — higher, -0.0855
- CGGGGCAC — lower, -0.174
- CTACGGCC — lower, -0.213
- TGAATGCA — higher, -0.0864
- CGTTCCCC — lower, -0.165
- GGTAACGA — higher, -0.0355
- ACGTATGA — higher, 0.124
- ACGATTTA — higher, 0.164
- GGAATCCA — higher, -0.125
- AATATCAT — higher, 0.154
- ACTCAACT — higher, 0.162
- TCCACAAA — higher, 0.162
- AATCCTAA — lower, -0.193
